The supplement of paper PMC8728848
This is one part of the list.

Assays:
Assay in all cases: glycan array binding signal (z-score within array); higher = stronger binding
Conditions in all cases: glycan notation: IUPAC condensed, linker removed
[1] = biological target: Man(a1-3)[Man(a1-6)]Man(a1-6)[Man(a1-3)]Man(b1-4)GlcNAc(b1-4)GlcNAc
In short: (§1)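 The binding signal is a Z-score computed within each array. Data were drawn from 3228 arrays in the Consortium for Functional Glycomics database, restricted to those with a known protein sequence. Scores were averaged over arrays of the same protein sequence at different concentrations or buffers, and over linkers, and negative values can be taken as non-binding.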

[2] = biological target: Man(a1-3)[Man(a1-6)]Man(b1-4)GlcNAc(b1-4)GlcNAc
In short: as §1

[3] = biological target: Man(a1-6)Man
In short: as §1

[4] = biological target: Man(b1-4)GlcNAc
In short: as §1

[5] = biological target: Neu5Ac(a2-3)Gal
In short: as §1

[6] = biological target: Neu5Ac(a2-3)Gal(b1-3)GalNAc
In short: as §1

[7] = biological target: Neu5Ac(a2-3)Gal(b1-3)GalNAc(b1-3)Gal(a1-4)Gal(b1-4)Glc
In short: as §1

[8] = biological target: Neu5Ac(a2-3)Gal(b1-3)GalNAc(b1-3)Gal(b1-4)GlcNAc
In short: as §1

[9] = biological target: Neu5Ac(a2-3)Gal(b1-3)GalNAc(b1-4)[Neu5Ac(a2-3)]Gal(b1-4)Glc
In short: as §1

[10] = biological target: Neu5Ac(a2-3)Gal(b1-3)GalNAc6S
In short: as §1

[11] = biological target: Neu5Ac(a2-3)Gal(b1-3)GlcNAc
In short: as §1

[12] = biological target: Neu5Ac(a2-3)Gal(b1-3)GlcNAc(b1-3)Gal(b1-3)GlcNAc
In short: as §1

[13] = biological target: Neu5Ac(a2-3)Gal(b1-3)GlcNAc6S
In short: as §1

[14] = biological target: Neu5Ac(a2-3)Gal(b1-3)[Fuc(a1-4)]GlcNAc
In short: as §1

[15] = biological target: Neu5Ac(a2-3)Gal(b1-3)[Fuc(a1-4)]GlcNAc(b1-3)Gal(b1-3)[Fuc(a1-4)]GlcNAc
In short: as §1

[16] = biological target: Neu5Ac(a2-3)Gal(b1-3)[Fuc(a1-4)]GlcNAc(b1-3)Gal(b1-4)[Fuc(a1-3)]GlcNAc
In short: as §1

[17] = biological target: Neu5Ac(a2-3)Gal(b1-3)[Neu5Ac(a2-3)Gal(b1-4)]GlcNAc
In short: as §1

[18] = biological target: Neu5Ac(a2-3)Gal(b1-3)[Neu5Ac(a2-6)]GalNAc
In short: as §1

[19] = biological target: Neu5Ac(a2-3)Gal(b1-4)Glc
In short: as §1

[20] = biological target: Neu5Ac(a2-3)Gal(b1-4)GlcNAc
In short: as §1

[21] = biological target: Neu5Ac(a2-3)Gal(b1-4)GlcNAc(b1-2)Man(a1-3)[GlcNAc(b1-2)Man(b1-4)GlcNAc(b1-2)Man(a1-6)]Man(b1-4)GlcNAc(b1-4)GlcNAc
In short: as §1

[22] = biological target: Neu5Ac(a2-3)Gal(b1-4)GlcNAc(b1-2)Man(a1-3)[Neu5Ac(a2-3)Gal(b1-4)GlcNAc(b1-2)Man(a1-6)]Man(b1-4)GlcNAc(b1-4)GlcNAc
In short: as §1

[23] = biological target: Neu5Ac(a2-3)Gal(b1-4)GlcNAc(b1-2)Man(a1-3)[Neu5Ac(a2-6)Gal(b1-4)GlcNAc(b1-2)Man(a1-6)]Man(b1-4)GlcNAc(b1-4)GlcNAc
In short: as §1

[24] = biological target: Neu5Ac(a2-3)Gal(b1-4)GlcNAc(b1-3)Gal(b1-3)GlcNAc
In short: as §1

[25] = biological target: Neu5Ac(a2-3)Gal(b1-4)GlcNAc(b1-3)Gal(b1-4)GlcNAc
In short: as §1

[26] = biological target: Neu5Ac(a2-3)Gal(b1-4)GlcNAc(b1-3)Gal(b1-4)GlcNAc(b1-3)Gal(b1-4)GlcNAc
In short: as §1

[27] = biological target: Neu5Ac(a2-3)Gal(b1-4)GlcNAc(b1-3)Gal(b1-4)[Fuc(a1-3)]GlcNAc
In short: as §1

[28] = biological target: Neu5Ac(a2-3)Gal(b1-4)GlcNAc(b1-3)GalNAc
In short: as §1

[29] = biological target: Neu5Ac(a2-3)Gal(b1-4)GlcNAc(b1-6)[Gal(b1-3)]GalNAc
In short: as §1

[30] = biological target: Neu5Ac(a2-3)Gal(b1-4)GlcNAc(b1-6)[Neu5Ac(a2-3)Gal(b1-3)]GalNAc
In short: as §1

[31] = biological target: Neu5Ac(a2-3)Gal(b1-4)GlcNAc6S
In short: as §1

[32] = biological target: Neu5Ac(a2-3)Gal(b1-4)[Fuc(a1-3)]GlcNAc
In short: as §1

[33] = biological target: Neu5Ac(a2-3)Gal(b1-4)[Fuc(a1-3)]GlcNAc(b1-3)Gal
In short: as §1

[34] = biological target: Neu5Ac(a2-3)Gal(b1-4)[Fuc(a1-3)]GlcNAc(b1-3)Gal(b1-4)GlcNAc
In short: as §1

[35] = biological target: Neu5Ac(a2-3)Gal(b1-4)[Fuc(a1-3)]GlcNAc(b1-3)Gal(b1-4)[Fuc(a1-3)]GlcNAc(b1-3)Gal(b1-4)[Fuc(a1-3)]GlcNAc
In short: as §1

[36] = biological target: Neu5Ac(a2-3)Gal(b1-4)[Fuc(a1-3)]GlcNAc(b1-6)[Gal(b1-3)]GalNAc
In short: as §1

[37] = biological target: Neu5Ac(a2-3)Gal(b1-4)[Fuc(a1-3)]GlcNAc(b1-6)[Neu5Ac(a2-3)Gal(b1-3)]GalNAc
In short: as §1

[38] = biological target: Neu5Ac(a2-3)Gal(b1-4)[Fuc(a1-3)]GlcNAc6S
In short: as §1

[39] = biological target: Neu5Ac(a2-3)Gal6S(b1-4)GlcNAc
In short: as §1

[40] = biological target: Neu5Ac(a2-3)Gal6S(b1-4)[Fuc(a1-3)]GlcNAc
In short: as §1

[41] = biological target: Neu5Ac(a2-3)GalNAc
In short: as §1

[42] = biological target: Neu5Ac(a2-3)GalNAc(b1-4)GlcNAc
In short: as §1

[43] = biological target: Neu5Ac(a2-3)[GalNAc(b1-4)]Gal(b1-4)Glc
In short: as §1

[44] = biological target: Neu5Ac(a2-3)[GalNAc(b1-4)]Gal(b1-4)GlcNAc
In short: as §1

B1: SSA (Sclerotinia sclerotiorum), A7XUK7 (protein)
chain: MGFKGVGTYEIVPYQAPSLNLNAWEGKLEPGAVVRTYTRGDKPSDNAKWQVALVAGSGDSAEYLIINVHSGYFLTATKENHIVSTPQISPTDPSARWTIKPATTHQYEVFTINNKVSELGQLTVKDYSTHSGADVLSASAKTADNQKWYFDAK
glycan array binding signal (z-score) [1]: -0.201 | glycan array binding signal (z-score) [2]: 0.113 | glycan array binding signal (z-score) [3]: -0.331 | glycan array binding signal (z-score) [4]: -0.358 | glycan array binding signal (z-score) [5]: -0.257 | glycan array binding signal (z-score) [6]: -0.226 | glycan array binding signal (z-score) [7]: -0.295 | glycan array binding signal (z-score) [8]: -0.267 | glycan array binding signal (z-score) [9]: -0.159 | glycan array binding signal (z-score) [10]: -0.365 | glycan array binding signal (z-score) [11]: -0.286 | glycan array binding signal (z-score) [12]: -0.389 | glycan array binding signal (z-score) [13]: -0.258 | glycan array binding signal (z-score) [14]: -0.248 | glycan array binding signal (z-score) [15]: -0.175 | glycan array binding signal (z-score) [16]: -0.301 | glycan array binding signal (z-score) [17]: -0.184 | glycan array binding signal (z-score) [18]: 0.198 | glycan array binding signal (z-score) [19]: -0.186 | glycan array binding signal (z-score) [20]: -0.233 | glycan array binding signal (z-score) [21]: -0.291 | glycan array binding signal (z-score) [22]: -0.446 | glycan array binding signal (z-score) [23]: -0.264 | glycan array binding signal (z-score) [24]: -0.297 | glycan array binding signal (z-score) [25]: -0.244 | glycan array binding signal (z-score) [26]: -0.152 | glycan array binding signal (z-score) [27]: -0.158 | glycan array binding signal (z-score) [28]: -0.425 | glycan array binding signal (z-score) [29]: -0.127 | glycan array binding signal (z-score) [30]: -0.196 | glycan array binding signal (z-score) [31]: -0.028 | glycan array binding signal (z-score) [32]: -0.307 | glycan array binding signal (z-score) [33]: -0.355 | glycan array binding signal (z-score) [34]: -0.301 | glycan array binding signal (z-score) [35]: -0.248 | glycan array binding signal (z-score) [36]: -0.138 | glycan array binding signal (z-score) [37]: -0.065 | glycan array binding signal (z-score) [38]: 0.027 | glycan array binding signal (z-score) [39]: -0.161 | glycan array binding signal (z-score) [40]: -0.211 | glycan array binding signal (z-score) [41]: -0.192 | glycan array binding signal (z-score) [42]: -0.127 | glycan array binding signal (z-score) [43]: -0.14 | glycan array binding signal (z-score) [44]: -0.13
